In all, about 360,000 compounds went through this assay and about 7,500 (2.1%) were called active. The shares of active, inactive and inconclusive entries below differ from those in the screen. Calls follow the shape of the dose curve; as a rule, active = well fitted cell-killing curve with a large enough effect; inconclusive = small, poorly fitted or top-dose-only effect, or effect the other way, or another doubt; inactive = no such curve, though single readings can be large or run the other way. Potencies of inconclusive entries are left out as doubtful fits.
Experiment: qHTS for induction of synthetic lethality in tumor cells producing 2HG: qHTS for the HT-1080-IDH1KD cell line;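 as to activity, negative = toxicity: 0% = DMSO wells and -100% = cell-free medium wells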
Settings: HT-1080 IDH1 knockdown viability, ATP luminescence, 48 h; activity, negative = toxicity: at 46.1 µM (top of the series) unless noted
Procedure, shortened: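 After a 2 h attachment period, IDH1KD HT-1080 cells took pin-transferred compound for 48 h at 37 °C; ATP-based luminescence after 10 min room-temperature reagent incubation reported viability.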
Potency is read from the fitted curve at half-maximal effect; tags tell the direction and shape of the fitted curve.

Row | SMILES | activity, negative = toxicity | Potency
1 | O=C1CC(c2ccccc2)Oc2cc(O)ccc21 (stereo not drawn) | inactive: -21.7% | –
2 | Cc1cccc(NC(=O)CSc2c3c(nc4ccccc24)CCC3)n1 | – | inconclusive [cytotoxic, single point]
3 | CCC(C)Sc1cccc(-c2nc3cc(C)ccn3c2NCc2ccccc2)c1 (stereo not drawn) | – | active: 26.4 µM
4 | Cc1ccc2sc(N(CCCN(C)C)C(=O)c3nc4ccccc4s3)nc2c1C | – | active: 20.6 µM
5 | Cc1cc(C)c(C)c(S(=O)(=O)N2CCN(c3ccc(O)cc3)CC2)c1C | – | inconclusive [cytotoxic, partial curve]
6 | Cc1ccc(-n2nnnc2CNC(=O)c2ccc([N+](=O)[O-])o2)cc1C | – | inconclusive [cytotoxic, partial curve]
7 | COc1ccc(Nc2nc(NC(C)(C)C)nc(N3CCCC3)n2)c(OC)c1 | – | inconclusive [cytotoxic, single point]
8 | COc1cc(/C=N\NC(=O)CC#N)ccc1OC/C=C/c1ccccc1 | – | inconclusive [cytotoxic, single point]
9 | O=C(Nc1ccc(Cl)cc1)c1cnc(-c2ccccc2)nc1-c1ccccc1 | – | inconclusive [cytotoxic, single point]
10 | COc1cc(/C=C2\SC(N)=NC2=O)ccc1OCC(=O)Nc1ccc(C)cc1 | inactive: -0.268% | –
11 | COc1ccc(NC(=O)C2CCCN(c3nc(C)cc(C)n3)C2)cc1 (stereo not drawn) | inactive: 3.6% | –
12 | CCOc1ccc(NC(=O)C[n+]2ccc(N(C)C)cc2)cc1 | – | inconclusive [cytotoxic, single point]
13 | CCN(CC)S(=O)(=O)c1ccc(C(=O)Nc2nnc(-c3ccco3)o2)cc1 | – | inconclusive [cytotoxic, single point]
14 | COc1ccc(OC)c(NC(=O)C2CCN(Cc3cnn(-c4ccccc4)c3-n3cccc3)CC2)c1 | – | inconclusive [cytotoxic, single point]
15 | COc1ccc(C(=O)Cn2c(C)nc([N+](=O)[O-])c2Br)cc1 | – | inconclusive [cytotoxic, single point]
16 | O=S(=O)(NC1CCCCC1NCc1ccco1)c1ccccc1 (stereo not drawn) | – | inconclusive [cytotoxic, single point]
17 | CCCc1ccc2oc(C(=O)N(C)Cc3cnccn3)c(C)c2c1 | inactive: 12.2% | –
18 | Cc1cc(O)c(/C=N/Nc2ccccc2Cl)c(=O)o1 | – | inconclusive [cytotoxic, single point]
19 | Cc1ccc(C(=O)COC(=O)c2cccc(NC(=O)c3ccc([N+](=O)[O-])cc3[N+](=O)[O-])c2)cc1 | – | inconclusive [cytotoxic, single point]
20 | CN(C)S(=O)(=O)c1cccc(NC(=O)Cn2cnc3ccccc3c2=O)c1 | inactive: 11.8% | –
21 | COC(=O)C1CC2=C(CCCC2=O)N(Cc2ccccc2)C1=O (stereo not drawn) | inactive: 3.89% | –
22 | O=S1(=O)C[C@H](N2CCCC2)[C@@H](COCc2ccccc2)N1 | – | inconclusive [rising, single point]
23 | O=C(NCc1ccc2c(c1)OCO2)c1ccc(-c2ccc(Cl)cc2)o1 | – | inconclusive [cytotoxic, single point]
24 | CC(=O)Nc1ccc2cc3ccc(NC(C)=O)cc3nc2c1 | – | inconclusive [cytotoxic, single point]

Row | SMILES | activity, negative = toxicity | Potency
25 | CCCn1c2ccc(C)cc2c2nnc(SCCN3CCCCC3)nc21 | – | inconclusive [cytotoxic, single point]
26 | CCOC(=O)c1ccc(NC(=O)COc2ccccc2CNC2CCCC2)cc1 | – | active: 23.1 µM
27 | Cc1cccc2sc(N(CCN(C)C)C(=O)c3ccc4ccccc4c3)nc12 | inactive: -0.715% | –
28 | COCCCNC(=O)c1cc2cc(Br)ccc2oc1=O | inactive: 25.2% | –
29 | COC(=O)/C(C#N)=C/c1ccc(C)o1 | – | inconclusive [rising, partial curve, poor fit]
30 | COC(=O)c1c(C)nc2ccccc2c1-c1ccccc1 | – | inconclusive [cytotoxic, single point]
31 | COc1ccc(-c2nnc(SCC(=O)NNC(=O)Cc3ccccc3)n2C)cc1OC | inactive: 5.93% | –
32 | CCCN1C2CCCC1CC(NC(=S)NCCCOCC)C2 (stereo not drawn) | inactive: 9.91% | –
33 | COc1cc2nc(CN3CCN(S(=O)(=O)c4cc(C)ccc4C)CC3)[nH]c(=O)c2cc1OC | – | inconclusive [cytotoxic, single point]
34 | CN(c1ccccc1)c1nc(N)c(C#N)c(CC#N)c1C#N | – | inconclusive [cytotoxic, single point]
35 | CC1CCc2sc3nc(N4CCN(CCO)CC4)n4ncnc4c3c2C1 (stereo not drawn) | – | inconclusive [cytotoxic, single point]
36 | Cc1ccc(CNC(=O)CCCc2ccccc2)cc1 | inactive: 6.41% | –
37 | CC(C)Cc1ccc(C(C)C(=O)Nc2ccccc2O)cc1 (stereo not drawn) | – | active: 23.1 µM
38 | COc1ccc(NS(=O)(=O)c2cc(NC(=O)c3ccc(=O)[nH]c3)ccc2N2CCCC2)cc1 | – | active: 2.06 µM
39 | O=C(CSc1ccc(Cl)cc1)Nc1ccc(N2CCN(C(=O)c3ccc(Cl)cc3)CC2)cc1 | – | inconclusive [cytotoxic, single point]
40 | COc1ccc(S(=O)(=O)n2ccc(C(C)Oc3ccc(-c4ccccc4)c(F)c3)n2)cc1 (stereo not drawn) | – | inconclusive [cytotoxic, single point]
41 | Cc1ccc(S(=O)(=O)Nc2ccccc2-c2ccccc2)cc1 | – | active: 4.11 µM
42 | Cn1ncc2c(=O)[nH]nnc21 | inactive: 10.8% | –
43 | O=C(NC1CCN(Cc2ccccc2)CC1)c1cccc(NS(=O)(=O)c2ccc(Br)cc2)c1 | inactive: -12.2% | –
44 | CN1C(=O)NC2(O)C(=O)c3ccccc3C12O (stereo not drawn) | – | inconclusive [cytotoxic, single point]
45 | CCc1nc2ccccc2c(C(=O)OCc2nnc(-c3ccccc3)o2)c1C | – | inconclusive [cytotoxic, single point]
46 | COc1ccc(NC(=O)C(NC(=O)c2ccccc2)C(C)C)cc1 (stereo not drawn) | inconclusive: 23.1% | –
47 | COCCNC(=S)N/N=C(\C)c1ccc(-n2ccnc2)cc1 | – | active: 10 µM
48 | O=C(COC(=O)c1ccc2[nH]c3c(c2c1)CCCC3)Nc1ccccc1 | – | active: 23.1 µM

From PubChem BioAssay AID686971 (National Center for Advancing Translational Sciences (NCATS), 2013)
